Results published in paper PMC4336329 (PLoS ONE, 2015).
Hit rate of the full screen: of about 310,000 compounds, about 14,000 (4.5%) showed an effect of 50% or more. Effects have a minus sign here. Some of the results follow.

target: human ether-à-go-go-related gene (hERG) potassium channel (human, UniProt Q12809); assay: primary screen, population patch clamp on CHO cells stably expressing hERG
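Further: peak tail current of the secondary pulse compared with the same well before compound.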

Chain of human ether-à-go-go-related gene (hERG) potassium channel (Q12809 whole entry, looked up): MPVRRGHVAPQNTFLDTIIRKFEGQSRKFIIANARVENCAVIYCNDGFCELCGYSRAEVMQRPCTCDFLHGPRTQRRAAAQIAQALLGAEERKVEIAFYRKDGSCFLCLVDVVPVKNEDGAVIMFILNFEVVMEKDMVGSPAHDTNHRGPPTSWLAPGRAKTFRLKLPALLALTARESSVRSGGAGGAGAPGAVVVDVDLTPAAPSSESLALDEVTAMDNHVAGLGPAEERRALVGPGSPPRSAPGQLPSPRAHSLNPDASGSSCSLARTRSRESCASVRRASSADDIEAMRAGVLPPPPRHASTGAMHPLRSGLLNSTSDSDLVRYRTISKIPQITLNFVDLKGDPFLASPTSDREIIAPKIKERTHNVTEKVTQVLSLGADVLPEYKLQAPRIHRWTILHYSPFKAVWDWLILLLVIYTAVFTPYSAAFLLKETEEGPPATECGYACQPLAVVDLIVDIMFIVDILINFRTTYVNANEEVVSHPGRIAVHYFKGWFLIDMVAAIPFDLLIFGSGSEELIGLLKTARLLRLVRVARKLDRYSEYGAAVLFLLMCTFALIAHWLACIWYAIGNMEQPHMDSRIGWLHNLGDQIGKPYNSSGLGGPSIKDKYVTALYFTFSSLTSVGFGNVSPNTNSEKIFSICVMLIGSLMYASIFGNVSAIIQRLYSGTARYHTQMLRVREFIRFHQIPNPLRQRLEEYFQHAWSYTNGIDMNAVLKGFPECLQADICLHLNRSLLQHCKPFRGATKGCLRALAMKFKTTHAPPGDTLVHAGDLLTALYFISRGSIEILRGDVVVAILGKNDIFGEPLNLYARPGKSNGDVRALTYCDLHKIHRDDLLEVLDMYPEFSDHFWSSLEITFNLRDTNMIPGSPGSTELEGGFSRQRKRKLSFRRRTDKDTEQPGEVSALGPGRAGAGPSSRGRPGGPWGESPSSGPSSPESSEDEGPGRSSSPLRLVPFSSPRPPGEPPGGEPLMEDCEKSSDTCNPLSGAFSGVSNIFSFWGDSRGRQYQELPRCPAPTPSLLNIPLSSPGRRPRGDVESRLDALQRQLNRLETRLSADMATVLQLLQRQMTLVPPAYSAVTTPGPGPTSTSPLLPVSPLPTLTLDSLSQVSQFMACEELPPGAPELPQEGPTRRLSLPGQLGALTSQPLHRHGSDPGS

**Q.** Which “hERG current change (%, negative = inhibition) at 10uM” value does the source give for `C=CCNC(=S)N1CCN(C2CCCCC2)CC1` here?
**A.** -30.2%

**Q.** With `CC(NC(=O)C(=O)N1CCCCC1)C(c1cccs1)N1CCN(c2ccccc2)CC1` (stereo not drawn) as the compound, how does the “hERG current change (%, negative = inhibition) at 10uM” value read?
**A.** -8.83%

**Q.** `C#CCNC(=O)C1=C[C@@H](c2ccc(C#C)cc2)C[C@@H](OCc2ccc(CO)cc2)O1` was tested. Which “hERG current change (%, negative = inhibition) at 10uM” value did it give?
**A.** -2.03%

**Q.** `c1ccc(CSc2nnc(-c3cccs3)n2Cc2ccco2)cc1` was tested. Which “hERG current change (%, negative = inhibition) at 10uM” value did it give?
**A.** -46.8%

**Q.** `CCC(=O)Nc1c(C)nn(-c2ccc(C)c(C)c2)c1C` was tested. Which “hERG current change (%, negative = inhibition) at 10uM” value did it give?
**A.** -4.15%

**Q.** For `CSc1nc(-c2ccco2)nn1C(=O)c1ccc(C)cc1`, which “hERG current change (%, negative = inhibition) at 10uM” value is on record?
**A.** 11.8%

**Q.** For `CCC(=O)Nc1ccc(C(=O)N2CCN(C(=O)c3ccco3)CC2)cc1`, which “hERG current change (%, negative = inhibition) at 10uM” value is on record?
**A.** -6%

**Q.** How did the “hERG current change (%, negative = inhibition) at 10uM” value turn out when `O=C(CCC1CCCN(C(=O)C2CCCC2)C1)NCc1ccc(F)c(F)c1` (stereo not drawn) was run?
**A.** -30%

**Q.** `NC(=O)c1ccsc1NC(=O)COC(=O)COc1ccccc1F` was tested. Which “hERG current change (%, negative = inhibition) at 10uM” value did it give?
**A.** -1.61%

**Q.** With `CCOC(=O)C1CCN(C(=O)Cc2cccs2)CC1` as the compound, how does the “hERG current change (%, negative = inhibition) at 10uM” value read?
**A.** -4.67%

**Q.** `CCOP(=O)(C#CC(C)(C)C)C(O)(c1ccccc1)C(F)(F)F` (stereo not drawn) was tested. Which “hERG current change (%, negative = inhibition) at 10uM” value did it give?
**A.** -9.82%

**Q.** Which “hERG current change (%, negative = inhibition) at 10uM” value does the source give for `CCC(=O)Nc1nc2ccc3nc(C)sc3c2s1` here?
**A.** -7.15%

**Q.** `CCOc1ccc(C(=O)N(CN2CCCC2=O)c2ccc(C)cc2)cc1` was tested. Which “hERG current change (%, negative = inhibition) at 10uM” value did it give?
**A.** -8.79%

**Q.** `Cc1[nH][nH]c(=O)c1C(c1ccc(-c2ccc(F)cc2)o1)c1c(C)[nH][nH]c1=O` was tested. Which “hERG current change (%, negative = inhibition) at 10uM” value did it give?
**A.** 17.9%

**Q.** How did the “hERG current change (%, negative = inhibition) at 10uM” value turn out when `Cc1ccccc1/C=N/N1C(=O)CSC1=S` was run?
**A.** 14.7%

**Q.** With `Cc1noc(C)c1CSc1ccc(Br)cc1` as the compound, how does the “hERG current change (%, negative = inhibition) at 10uM” value read?
**A.** 4.6%

**Q.** For `Cc1ccc(-c2cc3c(n2-c2ccc(C(=O)O)cc2)CCCC3=O)cc1`, which “hERG current change (%, negative = inhibition) at 10uM” value is on record?
**A.** 7.44%

**Q.** How did the “hERG current change (%, negative = inhibition) at 10uM” value turn out when `Cc1ccc(OCCOCCOc2ccc(Br)cc2/C=N\NC(=O)c2ccncc2)cc1` was run?
**A.** -8.61%

**Q.** How did the “hERG current change (%, negative = inhibition) at 10uM” value turn out when `Cc1ccc(Cl)cc1N1CCN(C(=O)C2(S(=O)(=O)c3ccc(Cl)cc3)CC2)CC1` was run?
**A.** -6.38%

**Q.** How did the “hERG current change (%, negative = inhibition) at 10uM” value turn out when `Cc1ccc(/C=N/NS(=O)(=O)c2ccccc2)o1` was run?
**A.** 7.34%

**Q.** How did the “hERG current change (%, negative = inhibition) at 10uM” value turn out when `CCCn1c(N)c(N(CCOC)C(=O)c2ccc([N+](=O)[O-])c(C)c2)c(=O)[nH]c1=O` was run?
**A.** 35.8%

**Q.** How did the “hERG current change (%, negative = inhibition) at 10uM” value turn out when `Cc1[nH]n2c(=O)c3c(nc2c1-c1ccccc1)CCC3` was run?
**A.** 0.138%

**Q.** For `COC(=O)c1cn(C(=O)c2ccc(OC)cc2)c2ccccc12`, which “hERG current change (%, negative = inhibition) at 10uM” value is on record?
**A.** 12.7%

**Q.** Which “hERG current change (%, negative = inhibition) at 10uM” value does the source give for `Cn1cnnc1SCC(=O)Nc1ccc(S(=O)(=O)N2CCCC2)cc1` here?
**A.** 0.142%

**Q.** How did the “hERG current change (%, negative = inhibition) at 10uM” value turn out when `CCOc1ccc(CN2CCN(S(=O)(=O)c3ccc(NC(C)=O)cc3)CC2)cc1OC.O=C(O)C(=O)O` was run?
**A.** -35.4%

**Q.** How did the “hERG current change (%, negative = inhibition) at 10uM” value turn out when `CCOc1ccc(C2c3[nH]c4ccccc4c3C[C@H]3C(=O)N(C4CCN(Cc5ccccc5)CC4)CC(=O)N23)cc1OC` (stereo partly drawn) was run?
**A.** -5.25%

**Q.** With `Cc1c(CC(=O)N[C@H](C(=O)O)C(C)C)c(=O)oc2cc3c(cc12)CCC(C)(C)O3` as the compound, how does the “hERG current change (%, negative = inhibition) at 10uM” value read?
**A.** 23.1%

**Q.** How did the “hERG current change (%, negative = inhibition) at 10uM” value turn out when `NC(=O)/C(=C\c1ccncc1)c1cccc2ccccc12` was run?
**A.** 13%

**Q.** With `Cc1ccc(S(=O)(=O)NNC(=S)Nc2cccc(F)c2)cc1` as the compound, how does the “hERG current change (%, negative = inhibition) at 10uM” value read?
**A.** 19.7%

**Q.** For `O=C(N/N=C\C1CC=CCC1)c1ccc(Br)o1` (stereo not drawn), which “hERG current change (%, negative = inhibition) at 10uM” value is on record?
**A.** 15.6%

**Q.** Which “hERG current change (%, negative = inhibition) at 10uM” value does the source give for `COc1cc(S(=O)(=O)NC2CCCCC2)ccc1Cl` here?
**A.** -25.8%

**Q.** How did the “hERG current change (%, negative = inhibition) at 10uM” value turn out when `CCOC(=O)c1c(C)n(C)c2cc(OCCN(CC)CC)ccc12` was run?
**A.** -9.96%

**Q.** `COc1ccccc1N1CCN(CCN(C(=O)c2ccc(F)cc2)c2ccccn2)CC1.Cl` was tested. Which “hERG current change (%, negative = inhibition) at 10uM” value did it give?
**A.** -78.8%

**Q.** For `CCN1C(=O)C(F)(CC)C(=O)c2ccccc21` (stereo not drawn), which “hERG current change (%, negative = inhibition) at 10uM” value is on record?
**A.** -0.848%

**Q.** `O=C(NCCCO)C12CC3CC(CC(C3)C1)C2` was tested. Which “hERG current change (%, negative = inhibition) at 10uM” value did it give?
**A.** 11.7%

**Q.** With `Cc1ccc(C(=O)NCC(=O)Nc2ncccc2C)s1` as the compound, how does the “hERG current change (%, negative = inhibition) at 10uM” value read?
**A.** 1.91%

**Q.** With `COc1cc(OC)nc(NC(=O)NS(=O)(=O)c2ccc(OC(F)(F)F)cc2)n1` as the compound, how does the “hERG current change (%, negative = inhibition) at 10uM” value read?
**A.** 17.2%

**Q.** For `COc1ccc(CCNS(=O)(=O)c2ccc(-c3ccc(=O)[nH]n3)o2)cc1OC`, which “hERG current change (%, negative = inhibition) at 10uM” value is on record?
**A.** 10.7%

**Q.** How did the “hERG current change (%, negative = inhibition) at 10uM” value turn out when `CCNC(=O)CN(c1ccc(CC)cc1)S(C)(=O)=O` was run?
**A.** 3.74%

**Q.** How did the “hERG current change (%, negative = inhibition) at 10uM” value turn out when `COc1ccccc1NS(=O)(=O)c1ccc(NC(=O)CCNC(=O)c2ccco2)cc1` was run?
**A.** 14.4%

**Q.** Which “hERG current change (%, negative = inhibition) at 10uM” value does the source give for `COc1ccccc1NC(=O)c1cnc2n(c1=O)CCS2` here?
**A.** 10.7%

**Q.** How did the “hERG current change (%, negative = inhibition) at 10uM” value turn out when `O=C(CSc1ccc(Cl)cc1)NC(=O)c1ccccc1` was run?
**A.** -7.63%

**Q.** For `O=C(Nc1cc(F)ccc1F)C1CCCN(c2ncnc3c2nc2n3CCCCC2)C1` (stereo not drawn), which “hERG current change (%, negative = inhibition) at 10uM” value is on record?
**A.** -59.5%

**Q.** `CCN(CC)C(=O)C1(P(=O)(c2ccccc2)c2ccccc2)CCC1` was tested. Which “hERG current change (%, negative = inhibition) at 10uM” value did it give?
**A.** 8.45%

**Q.** Which “hERG current change (%, negative = inhibition) at 10uM” value does the source give for `O=C(CN(C(=O)CCC(=O)Nc1ccccn1)c1ccc2c(c1)OCO2)NCc1ccc(F)cc1` here?
**A.** 9.42%

**Q.** With `CN1C/C(=C/c2ccncc2)C(=O)/C(=C/c2ccncc2)C1` as the compound, how does the “hERG current change (%, negative = inhibition) at 10uM” value read?
**A.** 26.7%

**Q.** `CCCC(=O)N(c1ccc(OCC)cc1)C1C=CS(=O)(=O)C1` (stereo not drawn) was tested. Which “hERG current change (%, negative = inhibition) at 10uM” value did it give?
**A.** -19.2%

**Q.** `Cc1noc(C)c1S(=O)(=O)Nc1ccc(C(=O)N2CCc3ccccc3C2)cc1` was tested. Which “hERG current change (%, negative = inhibition) at 10uM” value did it give?
**A.** -12.4%

**Q.** With `Cc1cc(C)n2cc(CSc3nncn3C)nc2n1` as the compound, how does the “hERG current change (%, negative = inhibition) at 10uM” value read?
**A.** 17.2%

**Q.** `CCNCc1cc(Cl)cc(OC)c1OC(C)C.Cl` was tested. Which “hERG current change (%, negative = inhibition) at 10uM” value did it give?
**A.** 6.4%

**Q.** For `Cc1nn(C)c(C(=O)N2CCN(C(=O)c3ccco3)CC2)c1[N+](=O)[O-]`, which “hERG current change (%, negative = inhibition) at 10uM” value is on record?
**A.** 8.95%

**Q.** For `Nc1nonc1-n1nnc(C(=O)N/N=C/c2ccccc2F)c1-c1cccs1`, which “hERG current change (%, negative = inhibition) at 10uM” value is on record?
**A.** 14.8%

**Q.** Which “hERG current change (%, negative = inhibition) at 10uM” value does the source give for `CC(C)Cn1c(N)c(C(=O)COC(=O)CN2C(=O)C3CC=CCC3C2=O)c(=O)n(C)c1=O` (stereo not drawn) here?
**A.** -4.23%

**Q.** With `CCCCOC(=O)Nc1nnc(CCOCC)s1` as the compound, how does the “hERG current change (%, negative = inhibition) at 10uM” value read?
**A.** 0.737%

**Q.** For `Cn1c([O-])c(Cc2ccc(OCc3ccccc3)cc2)c(=O)n(C)c1=O.[NH4+]`, which “hERG current change (%, negative = inhibition) at 10uM” value is on record?
**A.** 13.4%

**Q.** For `O=C1NC(=O)N(c2cccc(Br)c2)C(=O)/C1=C/c1ccsc1`, which “hERG current change (%, negative = inhibition) at 10uM” value is on record?
**A.** 15.3%

**Q.** With `COc1ccc(CNC(=O)CN2c3ccccc3S(=O)(=O)c3ccccc32)cc1` as the compound, how does the “hERG current change (%, negative = inhibition) at 10uM” value read?
**A.** -4.56%
